# Data as given in PubChem BioAssay (Tox21).
# Several values for one entry are separate records, joined by “and”; a condition that tells them apart may be missing. Identical values can stand only once. Inconclusive means that the source gave no clear call. Such entries were picked first, then a sample of the others. Potencies of inconclusive entries are doubtful fits and often do not repeat. A structure can be active in one record and inactive in another. Activity calls are given as the source filed them. Calls follow the shape of the dose curve; as a rule, active = well fitted cell-killing curve with a large enough effect in the repeat runs; inconclusive = weak or mixed curves, or effect the other way; inactive = no such curve, though single readings can be large or run the other way.
# Test: qHTS assay to identify small molecule antagonists of the vitamin D receptor (VDR) signaling pathway - cell viability counter screen (AID 743225); also: nearly all actives have a fitted effect of over 50% in size
# Details: VDR-bla HEK293T viability, CellTiter-Glo luminescence, 16 h; viability change, negative = cytotoxic: at 61 µM (top of the series) unless noted
# Text: U.S. Tox21 Program National Center for Advancing Translational Sciences [NCATS] NIH Chemical Genomics Center [NCGC] U.S. Environmental Protection Agency [EPA] National Institutes of Environmental Health Sciences [NIEHS] National Toxicology Program [NTP] U.S. Food and Drug Administration [FDA] Tox21 Assay Overview: The vitamin D receptor (VDR), a member of nuclear hormone receptor superfamily, plays a critical role in calcium homeostasis and bone metabolism. It is also involved in cell differentiation and growth, and thrombogenicity. To identify the compounds that inhibit VDR signaling, the VDR-UAS-bla HEK 293T cell line (Invitrogen, Carlsbad, CA, USA) containing a beta-lactamase reporter gene under the control of an upstream activator sequence (UAS) was used to screen the Tox21 10K compound library. The cytotoxicity of the Tox21 compound library against the VDR-bla cell line was tested in parallel by measuring the cell viability using CellTiter-Glo assay (Promega, Madison, WI) in the same wells.
# Tox21 Assay Protocol Summary: VDR-bla cells were dispensed at 2,000 cells/5 uL of assay medium per well into black wall/clear-bottom 1536-well plates using a Multidrop Combi (Thermo Fisher Scientific, Waltham, MA) dispenser. After the assay plates were incubated at a 37C and 5% CO2 for 4 h, 23 nL of compounds dissolved in DMSO, positive controls or DMSO only was transferred to the assay plate by a Pintool station (Kalypsys, San Diego, CA), followed by addition of 1 uL of 1-alpha, 25-Dihydroxy Vitamin D3 (3 nM, final concentration in the wells) using a Bioraptr Flying Reagent Dispenser (FRD) workstation (Beckman Coulter, Indianapolis, IN). The plates were incubated at 37C and 5% CO2 for 16 h, and then 1 uL of LiveBLAzerTM B/G FRET substrate was added using a Bioraptr FRD. The plates were incubated at room temperature for 2 h and fluorescence intensity was measured by an Envision plate reader (PerkinElmer, Shelton, CT). For cell viability readout that measures cytotoxicity, 3 ul/well of CellTiter-Glo reagent was added into the assay plates using a Bioraptr FRD. After 30 min incubation at room temperature, the luminescence intensity in the plates was measured using a ViewLux plate reader (PerkinElmer).
# % is scaled to controls: 0 for no effect and ±100 for the full control effect; potency is read from the fitted curve at half-maximal effect; tags tell the direction and shape of the fitted curve.
SMILES,Potency,"viability change, negative = cytotoxic"
O=C(Cl)c1ccc([N+](=O)[O-])cc1,"inconclusive: 54 µM [cytotoxic, partial curve, poor fit]",–
NNc1nc(-c2ccc([N+](=O)[O-])cc2)cs1,"inconclusive: 1.95 µM [cytotoxic, full curve]",–
Oc1ccccc1O,"inconclusive: 5.56 µM [cytotoxic, single point]",–
CN(C)c1ccc2nc3ccc(=[N+](C)C)cc-3sc2c1,"active: 21.9 µM and inconclusive: 2.68 µM [cytotoxic, full curve]",–
Cc1ccc2ccccc2n1,"inconclusive: 0.049 µM [cytotoxic, partial curve, poor fit]",–
O=C(OCc1ccccc1)c1ccccc1O,"inconclusive: 61.2 µM [cytotoxic, single point] and inactive",–
CC1(C)CCC(C)(C)c2cc(C(=O)Nc3ccc(C(=O)O)cc3)ccc21,"inconclusive: 61.6 µM [cytotoxic, partial curve, poor fit]",–
OCCN1CCN(CCCN2c3ccccc3Sc3ccc(C(F)(F)F)cc32)CC1,active: 23.9 µM,–
C#C[C@]1(O)CC[C@H]2[C@@H]3CCc4cc(OC)ccc4[C@H]3CC[C@@]21C,"inconclusive: 4.9 µM [cytotoxic, full curve, poor fit]",–
Nc1ccc(C(=O)OCC(O)CO)cc1 (stereo not given),"inconclusive: 0.0952 µM [cytotoxic, single point]",–
COC(=O)CC(=O)C(C)(C)C,"inconclusive: 21.9 µM [cytotoxic, full curve, poor fit]",–
CCCC(=O)OC(C)(C)Cc1ccccc1,"inconclusive: 21.9 µM [rising, single point]",–
O=Cc1ccc(Cl)c(Cl)c1,"inconclusive: 63.3 µM [rising, partial curve, poor fit]",–
CCCCCCCCCCCCCCCC[N+](C)(C)CC,active: 13.8 µM and active: 23.9 µM,–
O=C(O)c1ccccc1Nc1cccc(C(F)(F)F)c1,–,inconclusive: -24.9% [cytotoxic]
O=C(OCC(COC(=O)c1ccccc1)(COC(=O)c1ccccc1)COC(=O)c1ccccc1)c1ccccc1,"inconclusive: 10.9 µM [cytotoxic, single point]",–
CC1=NN(c2ccc(C(=O)O)cc2)C(=O)C1,–,inactive: -1.24%
CCCCCCCCCCCC[N+](C)(C)C,"inconclusive: 3.08 µM [cytotoxic, full curve] and active: 54.9 µM and inconclusive: 54.9 µM [cytotoxic]",–
Nc1ncn([C@@H]2O[C@H](CO)[C@@H](O)[C@H]2O)c(=O)n1,"inconclusive: 12.3 µM [cytotoxic, full curve, poor fit]",–

SMILES,Potency,"viability change, negative = cytotoxic"
CC(C)[C@H]1CC[C@H](C)C[C@@H]1O,–,inactive: -2.24% [at 78.8 µM]
CCCCC(CC)COP(=O)(OCC(CC)CCCC)OCC(CC)CCCC (stereo not given),inactive,–
O=C(Cl)c1cc(C(=O)Cl)cc(C(=O)Cl)c1,"inconclusive: 11 µM [cytotoxic, full curve, poor fit]",–
C=CC(C)(CCC=C(C)C)OC(=O)c1ccccc1 (stereo not given),"inconclusive: 49 µM [cytotoxic, partial curve, poor fit]",–
C1CNCCN1,"inconclusive: 55.8 µM [cytotoxic, single point]",inconclusive: -16.1% [cytotoxic] [at 78.8 µM]
COc1cc(C(=O)NC2CCN(C)CC2)ccc1Nc1ncc2c(n1)N(C1CCCC1)CC(F)(F)C(=O)N2C,active: 7.11 µM,–
CCCCCC[C@@H](O)C/C=C\CCCCCCCC(=O)OCC(O)CO (stereo not given in full),–,inactive: -21.3%
Nc1c2ccccc2nc2ccccc12,"inconclusive: 21.6 µM [cytotoxic, partial curve] and inconclusive: 9.52 µM [cytotoxic, partial curve, poor fit]",–
C=CC(C)(CCC=C(C)C)OC(=O)C(C)C (stereo not given),"inconclusive: 0.155 µM [cytotoxic, full curve, poor fit]",–
C=C(C)C(=O)OCC(O)COc1ccc(C(C)(C)c2ccc(OCC(O)COC(=O)C(=C)C)cc2)cc1 (stereo not given),active: 19.5 µM,–
C=C1C(=C/C=C2\CCC[C@]3(C)[C@@H]([C@H](C)/C=C/[C@@H](O)C4CC4)CC[C@@H]23)C[C@@H](O)C[C@@H]1O,"inconclusive: 26.8 µM [cytotoxic, single point]",–
CC(Cc1cccc(C(F)(F)F)c1)NCCOC(=O)c1ccccc1 (stereo not given),active: 16.9 µM,–
CO[Si](CCCOCC1CO1)(OC)OC (stereo not given),"inconclusive: 0.0062 µM [rising, full curve]",inconclusive: -1.44% [cytotoxic]
CCCCOc1ccc(CC(=O)NO)cc1,–,inactive: -21.6%
Nc1nc(N)c2nc(CNc3ccc(C(=O)N[C@@H](CCC(=O)O)C(=O)O)cc3)cnc2n1,active: 0.0288 µM,–
CN1CCC(=C2c3ccccc3CCc3sccc32)CC1,"inconclusive: 26.8 µM [cytotoxic, partial curve]",–
O=C(O)c1cccc(Cl)n1,"inconclusive: 21.9 µM [cytotoxic, single point]",–
CCCCC(CC)COC(C)=O (stereo not given),inactive,–
C=CC(=O)OCCOCCOCC,"inconclusive: 12.3 µM [cytotoxic, single point]",–
